Laboratory results: US20200347138A1 (INDIAN INSTITUTE OF SCIENCE, published 2020)

Molecular target: T1, CR/FNII domain of canine DEC205, GST fusion protein (canine)
T1 construct: Expressed in E. coli BL21 from pGEX4T1, purified on GSH matrix as a 45 kDa GST fusion; exact limits of the insert are uncertain; also called canine CR/FNII; CR/FNII N-Terminal domain; not shown: glutathione S-transferase (GST) fusion partner from expression vector pGEX4T1
T1 chain: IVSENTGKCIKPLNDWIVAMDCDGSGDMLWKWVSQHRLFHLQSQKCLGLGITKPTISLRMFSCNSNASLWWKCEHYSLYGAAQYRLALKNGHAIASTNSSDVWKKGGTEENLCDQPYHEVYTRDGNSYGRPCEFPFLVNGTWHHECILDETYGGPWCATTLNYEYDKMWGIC
Assay: SPR, Biacore 2000, CR/FNII immobilised on CM5 chip, ScFv-CS as analyte

Kd: 0.5 nM
B1: ScFv-CS 39 (yeast library ScFv 39 fused to Core Streptavidin) (scFv)
chain: ASQVQLQQSGPGLVRPSQTLSLTCDISGDSVSRDTAAWNWVRQSPWRGLEWLGRTYYRSEWKTDYAVSLKSRITINPDTSKSQFSLQLNSVTPEDTAVYYCARGWSGMDVWGQGTTVTVSAGSASAPTGILGSGGGGSGGGGSGGGGS[about 100 residues omitted here]ISFGQGTRLEIKSGILEQKLISEEDL[about 120 residues omitted here]
notes: domain: Core Streptavidin; The insert was PCR amplified from the yeast display vector, so flanking residues may differ from the entry; Purified on DEAE-Sephacel; not shown: histidine tag
